Laboratory results as given in PMC12136788.
This is one part of the list.

T1: UNK ZnF1-3 (human, UniProt Q9C0B0 31-174)
T1 sequence: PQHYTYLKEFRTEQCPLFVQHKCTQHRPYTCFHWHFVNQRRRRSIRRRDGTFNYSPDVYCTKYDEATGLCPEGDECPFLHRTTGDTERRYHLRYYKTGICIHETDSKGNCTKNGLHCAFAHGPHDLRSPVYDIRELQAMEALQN

B1: 107755779_107755899_448_5pUTR_ENSMUSG00000032582_ENSMUST00000035201|mouse|control|control (ssRNA)
RNA: GGGAGUUCUACAGUCCGACGAUCAAAUCUACACACCAGCAUAUUCUUCUCUAAUCACAGCAUAUUCUUCUGUAAACAUAUUUUGGGGGGCAGAGUUCUGUAACAAGGUCCUAGAUCUGCAGAAAACAGCAAGUUUUGCUAUUUCAACAGAGGAUUGAGCAUCA
B2: chr5:125516475:125516476:-_ENSMUSG00000029478_ENSMUST00000125053|mus_mus|FALSE|FALSE (ssRNA)
RNA: GGGAGUUCUACAGUCCGACGAUCGGUCAAGGCGACUUGGGCUGUCCUCACCGACGAUCCUGCUGAUGGUACCCUUGUAGAGGACGUCUGCGGGCGUGCCGUGGGUGAUAGAGCCUCUGUAGCUGGGGCCGUCUGCAGCCCGGGCAACAGAGGAUUGAGCAUCA
B3: chr2:42509997:42509998:+_ENSG00000143924_ENST00000318522|hu_mus|hu_hu_hu_mus_True|1_108 (ssRNA)
RNA: GGGAGUUCUACAGUCCGACGAUCUCGCUGAGUUCUCUCCUCAUAAUUAAACAGGACUACCACUGAGGCGAUAAAAUAAACUAUCUCCCCUGUGGGAAGCAGGUAUACAUUCGCUCUACAGUCCUUUCCUCGAUAACCAUAUGCCAACAGAGGAUUGAGCAUCA
B4: 138631756_138633124_459_3pUTR_ENSMUSG00000036968_ENSMUST00000110934|mouse|control|control (ssRNA)
RNA: GGGAGUUCUACAGUCCGACGAUCUCCACUUUCACUCCCUUCUGGACCAGGCCUUUCAGUGUUGCCAUAGUCUGACUUUGACCCUUGGCGUAUCUUAGUGAGCCCUUGCGUUCAGCAUGAACAUUGUAAUCCAGGAUCCGCUCGCAACAGAGGAUUGAGCAUCA
B5: chr4:107939044:107939045:-_ENSMUSG00000034636_ENSMUST00000043616|mus_mus|FALSE|FALSE (ssRNA)
RNA: GGGAGUUCUACAGUCCGACGAUCACUUAUGAUGUCUGUGAUAGUGAUGUCAGCAUUCACACCCGUGGCAUCAAGUUCUACUAGCUUGUGGUGGCAAAAGGCUUUCCGGAAAGCAACAGCGGAAAUCUUUGCUUUGCGAAUGCACAACAGAGGAUUGAGCAUCA
B6: chr5:132440482:132440483:+_ENSG00000170606_ENST00000304858|hu_hu|motif|central (ssRNA)
RNA: GGGAGUUCUACAGUCCGACGAUCUUAAAGCAUAAUUAGAGCUCCUGCCAUGUAAGUCAUAAUGAAAAGUCUGCUGGAUAGCGGGAGCUGUAGCUAUAGCUCAACUUUCCAAAACAAACUUAUUCUUGUAGACACAUGGUUAAACAACAGAGGAUUGAGCAUCA
B7: chr7:7679991:7679992:-_ENSG00000106399_ENST00000396682|hu_hu|hu_hu_hu_mus_False|1_68 (ssRNA)
RNA: GGGAGUUCUACAGUCCGACGAUCUGGGAUGAAUCUUUUCCAGCUUCCCCACGAAGCACACGGGCCGGUCGAUGAAUUGUGGUAACAUGCUGGCGUUGACGCGCGCUUUGGGGAGCUGCAUUAUGUCCUCCAUGAUUAUGGUCCCAACAGAGGAUUGAGCAUCA
B8: chr12:39756943:39756944:-_ENSG00000139116_ENST00000544797|hu_mus|hu_hu_hu_mus_False|1_38 (ssRNA)
RNA: GGGAGUUCUACAGUCCGACGAUCGGUUUGGCUGUUACCCCCAAGGGAAUCCUGCAAGAGUCUUGUCAGCUUAGAGUCUCUGUAAGGGACAUGGGUGGCCCUCUUGCUCUUGUCCCCCAAGGCGCUGAUUACAUUCCCAAGUGCCAACAGAGGAUUGAGCAUCA
B9: chr1:169100865:169100866:+_ENSG00000143153_ENST00000367816|hu_mus|motif|central (ssRNA)
RNA: GGGAGUUCUACAGUCCGACGAUCGUGUAAAGCAUAGAGAUUAAGUGUAGGUCCCAUACGUAUGACAGUUUGUUCAAGACGGGUAGGUUUGUGUAUCUUUUUUUAACUUAUUAAAUGGCUAGUGGGAAAGAUUUGUGCUUGUGACAACAGAGGAUUGAGCAUCA
B10: chr8:48798321:48798322:-_ENSMUSG00000038069_ENSMUST00000038738|mus_hu|FALSE|FALSE (ssRNA)
RNA: GGGAGUUCUACAGUCCGACGAUCCAGUUCAUCUCUUGUUGUAUAGGUUGGAGCAUCUGUCACUUUGAUGCCUUCAGCCAUACUAAGUAUUUUAUCCAUAACUUUUUGAGGGUAUCGGCACCCGAGGAAGACGUGGUUCGCCCACAACAGAGGAUUGAGCAUCA
B11: chr5:138658563:138658564:+_ENSG00000015479_ENST00000502499|hu_hu|FALSE|FALSE (ssRNA)
RNA: GGGAGUUCUACAGUCCGACGAUCAUCUUUUUUCACAGCUUUAUCUGAUGGUUCCUUUUUCCCAUCAGAAGCCACAUCACCUAAAUUAGCAAGAUCGGUCUCGUCUCCCACUGAACUGCCACUUUCUAGCAGUGCUGCUGCUUCCAACAGAGGAUUGAGCAUCA
B12: chr11:116197844:116197845:-_ENSMUSG00000052949_ENSMUST00000100202|mus_mus|FALSE|FALSE (ssRNA)
RNA: GGGAGUUCUACAGUCCGACGAUCAGCACACGCACGCACACACACACAUACACACACACAUACACACAGGUGUUCAGGCCCUAAAACAAAGUGUGCAGCCAGCACGCCAACACCAGAUGGACAGGACUAGUUCCCCAGUGGGAUCAACAGAGGAUUGAGCAUCA
B13: chr3:179287964:179287965:+_ENSG00000136518_ENST00000429709|hu_mus|motif|central (ssRNA)
RNA: GGGAGUUCUACAGUCCGACGAUCCUUGAGUGGUGAGAUGGCCUCCAUGUUCUCCCUGGGCACGCGGAGGGCAUUGGUGUCGGUGUAGUAGGUGGGCCCGCCCUGCUUGCCUUUGUCACCAUCAAUCUCCAUCAUUGUACUUCCCAACAGAGGAUUGAGCAUCA
B14: chr2:136513182:136513183:+_ENSG00000144224_ENST00000272638|hu_mus|FALSE|FALSE (ssRNA)
RNA: GGGAGUUCUACAGUCCGACGAUCGUCAGAGGUAGCUGGUGUCUCACAAAGCUCUGUAUUUUUGGACUCGGGAUUUUCACAUACAUCAGGUUCAAAUGAGGCAGAUGGGGUAGAUACUGAACUUUCUGACUGGUUGUCAUUUGUCAACAGAGGAUUGAGCAUCA
B15: chr8:95530139:95530140:-_ENSG00000164944_ENST00000437199|hu_mus|motif|central (ssRNA)
RNA: GGGAGUUCUACAGUCCGACGAUCGACACCGCUGGAAGACUGAGCCACCACCAGCGUGAGUACGCAUGCGUAAUUAUAAGCGGCUGACUUCUUAGACUUGGAAUCGCCUAGGGCUUCUUUGGAAUAGUACUCCAUUAGAGUAAUCAACAGAGGAUUGAGCAUCA
B16: 11988921_11994759_323_CDS_ENSMUSG00000046139_ENSMUST00000061618|mouse|control|control (ssRNA)
RNA: GGGAGUUCUACAGUCCGACGAUCUCUCUCUCCAUUGCCUGUUUGUUCAUCAGCUGCCACAGGUAGCUUCUCUUCCAACUCAGCCAGGCGCUCAUGUGCUUCCUGCCAAUCAUCAUCAACUGCACCUGACCCAAAGGUAUCAUCCAACAGAGGAUUGAGCAUCA
B17: chr22:32879901:32879902:+_ENSG00000100225_ENST00000397426|hu_mus|hu_hu_hu_mus_False|28_98 (ssRNA)
RNA: GGGAGUUCUACAGUCCGACGAUCCUCUUCCAUACUCGCAUUAUCUUGAAUUGACUCAGCUUCAACAUUUUGACUAGGCCCUUCCAUACUGUCAUCAGUCCAGGCAUCAGACUGGGCGGCCUGUCCUUGGGAUGAAUCAGUCCCCAACAGAGGAUUGAGCAUCA
B18: chr3:15292738:15292739:+_ENSG00000131375_ENST00000253693|hu_hu|FALSE|FALSE (ssRNA)
RNA: GGGAGUUCUACAGUCCGACGAUCAGCCAGUAACUUGAGAUUUCUCCAUCACUGAAGUUGUGUGAUCUUGAUGGGGAUAAUACUAUUAAAGUCCAAGAAAAAAGGUCCUUCUUGUUUAGGCAAAAAGGUACUAGGAAUGAUAUUCAACAGAGGAUUGAGCAUCA
B19: chr17:45747064:45747065:+_ENSG00000108424_ENST00000290158|hu_hu|hu_hu_hu_mus_True|98_98 (ssRNA)
RNA: GGGAGUUCUACAGUCCGACGAUCGCCCACAGUCCACGCAGCUGUAUCUCGAACAACUACACUGGGGUCUUUCAUUAGUUCUAUUAGGGUGGGCAUAGCCUGUAUGACUAAUGGUUUCAGUUGAUUAGGCUCUGGUCCUUCCAACAACAGAGGAUUGAGCAUCA
B20: chr7:135612270:135612271:-_ENSG00000105887_ENST00000393085|hu_mus|hu_hu_hu_mus_False|18_28 (ssRNA)
RNA: GGGAGUUCUACAGUCCGACGAUCGUUUUUUUCUGAGAUGUUAAAUAGUACUUCAGUGGAAAACAAAACUUAACCUUUUAUUAAUGCGUGUUGUACCAAAAGCAGACCAUGGUUUUAGCUUCCUUUAAAAAUAUUAACAUUAAGCAACAGAGGAUUGAGCAUCA
B21: chr17:56167648:56167649:+_ENSG00000264364_ENST00000579991|hu_mus|FALSE|FALSE (ssRNA)
RNA: GGGAGUUCUACAGUCCGACGAUCUGUUCUCACCCUCACAACAGGGAACAUAAAAGCCCACUUAGAACUAACUGCCCUCUACUUCCCAUACACCCUAGAGAUUCCACUUAUCCUGCCCCUUCCCACCCUUCUACCCCAAACCCACAACAGAGGAUUGAGCAUCA
B22: chr3:176740097:176740098:-_ENSG00000177565_ENST00000430069|hu_mus|hu_hu_hu_mus_True|28_48 (ssRNA)
RNA: GGGAGUUCUACAGUCCGACGAUCUGUUUUGUAUACCACAAAAGGAGGCACUUUCAGUAUCUGCAAAAGGUGUUUAGUCCUAAAACAUACUUACCUAGAGGAUAACUAAAACAGAAUAUCUGUUACACUCUAAGACCUACUCCACAACAGAGGAUUGAGCAUCA

The binders below were run against T1, UNK ZnF1-3 (assay: nsRBNS (natural sequence RNA bind-n-seq); RBNS binding buffer (assumed for nsRBNS): 25 mM Tris pH 7.5, 150 mM KCl, 3 mM MgCl2, 0.01% Triton X-100, 500 ug/ml BSA, 20 U/ml SUPERase-In, 4 C; UNK is unkempt and MSI1 is Musashi-1; names of the RNAs are library labels; protein concentration not given here; high values mean tight binding).

Question: How did the binding signal turn out when B1 was run?
Answer: Its binding signal is 1.06 enrichment R.

Question: Which binding signal does the source give for B2 here?
Answer: Its binding signal is 0.961 enrichment R.

Question: B3 was tested. Which binding signal did it give?
Answer: Its binding signal is 1.01 enrichment R.

Question: With B4 as the binder, how does the binding signal read?
Answer: Its binding signal is 0.506 enrichment R.

Question: How did the binding signal turn out when B5 was run?
Answer: Its binding signal is 1.07 enrichment R.

Question: How did the binding signal turn out when B6 was run?
Answer: Its binding signal is 0.583 enrichment R.

Question: Which binding signal does the source give for B7 here?
Answer: Its binding signal is 0.459 enrichment R.

Question: How did the binding signal turn out when B8 was run?
Answer: Its binding signal is 0.675 enrichment R.

Question: B9 was tested. Which binding signal did it give?
Answer: The binding signal was 1.53 enrichment R.

Question: With B10 as the binder, how does the binding signal read?
Answer: The binding signal was 0.635 enrichment R.

Question: With B11 as the binder, how does the binding signal read?
Answer: Its binding signal is 0.57 enrichment R.

Question: For B12, which binding signal is on record?
Answer: Its binding signal is 2.43 enrichment R.

Question: B13 was tested. Which binding signal did it give?
Answer: Its binding signal is 0.734 enrichment R.

Question: B14 was tested. Which binding signal did it give?
Answer: The binding signal was 0.915 enrichment R.

Question: B15 was tested. Which binding signal did it give?
Answer: The binding signal was 1.13 enrichment R.

Question: B16 was tested. Which binding signal did it give?
Answer: The binding signal was 1.03 enrichment R.

Question: How did the binding signal turn out when B17 was run?
Answer: The binding signal was 0.995 enrichment R.

Question: With B18 as the binder, how does the binding signal read?
Answer: Its binding signal is 0.746 enrichment R.

Question: How did the binding signal turn out when B19 was run?
Answer: The binding signal was 0.64 enrichment R.

Question: How did the binding signal turn out when B20 was run?
Answer: Its binding signal is 0.893 enrichment R.

Question: How did the binding signal turn out when B21 was run?
Answer: Its binding signal is 1.74 enrichment R.

Question: With B22 as the binder, how does the binding signal read?
Answer: Its binding signal is 0.844 enrichment R.
